The other results are listed elsewhere or left out.

This test relates to PfSIP2 AP2 domain 1 (GST-tagged). Kind of test: gcPBM binding intensity (ln(normalized median fluorescence intensity)); higher = stronger DNA binding. Summed up: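 Probes on an Agilent 4 × 180k array were primer-extended, double-stranded and 36 bp long, taken from intergenic genomic regions, with negative controls added. GST-tagged P. falciparum DNA-binding domains from E. coli, about 25 μg on average, were applied to the array for 1 h in 1× PBS containing 1% milk, 0.2 mg/ml BSA, 0.5% salmon testes DNA and 0.03% Triton X-100. Binding intensity, obtained after Alexa488 anti-GST antibody detection and a 488 nm scan, is the highest Masliner-normalised natural-log median intensity across replicate spots of either probe orientation.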
On to “TTCATAATAAAAAGGTGTACATATATATATATATAT [XGTACX_site2829]”, for which the “gcPBM binding intensity (ln)” value was 9.8.
Take “AAGCATTTAATGTTTTATATAACATGTATTTTTTAT [CACACA_negctrl_site673]”: the “gcPBM binding intensity (ln)” value amounted to 6.96.
Turning to “TTTATATGTATACAAACATATAAATATAAATGTATT [TGCATGCA_negctrl_site346]”, the “gcPBM binding intensity (ln)” value came out at 6.85.
As to “TGTTCTATGATTTGTACACACTTTTTTTTAAAATGC [CACACA_site5558]”, the “gcPBM binding intensity (ln)” value was determined as 7.23.
The value for “TATATATACATATACACACACACACCGATATATATA [CACACA_site8706]” was 7.3.
Turning to “AAAATAAAAAGAAAAAATAAAAAGAAAAAATAAAAA [CACACA_negctrl_site120]”, the “gcPBM binding intensity (ln)” value was 6.77.
To “TTATATAATCCTTTCAAACACACAAAATATAATTAA [CACACA_site1830]” belongs 6.91.
Take “AGTGAAAAAAAATTTACACACATAAAATATAAACGA [CACACA_site3724]”: the “gcPBM binding intensity (ln)” value was determined as 7.08.
To “AAAAAAAATATAAGTGGTACTCACATAAAGACATAT [XGTACX_site3709]” belongs 7.24.
The value for “AAATAAAATACATATAAACACACATATAAACCAACA [CACACA_site8789]” was 7.08; that for “TTTTTTATTCTTTTTGCACACAGGAAATTTACAGAT [CACACA_site1090]” was 7.78; that for “TTTTTAGTTCATTAAACACACAAAAAAAAAAATAAA [CACACA_site6035]” was 6.91.
For the sequence “TAATACTTTTAATCTACACACGCTGAGACATGCTTT [CACACA_site1484]”, the “gcPBM binding intensity (ln)” value amounted to 6.61.
On to “TACAAAAAAAGATGATGTACAATGAAAAATAAGAAA [XGTACX_site5840]”, for which the “gcPBM binding intensity (ln)” value was determined as 7.
Regarding “AAAAAAAAAAAAAACACACACACAAATACAAATACA [CACACA_site414]”, the “gcPBM binding intensity (ln)” value came to 7.41.
For “ATAAATAATTGTAGTTGTACATGATATTTTTATTAC [XGTACX_site550]”, the “gcPBM binding intensity (ln)” value was determined as 7.14.
In the case of “AAATGGACCTAATTATCACACATTATACTCGTTTTC [CACACA_site5996]”, the “gcPBM binding intensity (ln)” value amounted to 6.82.
With “ATATATCATAATAAAAGTACTTATATATTTTATATA [XGTACX_site560]”, the “gcPBM binding intensity (ln)” value was determined as 6.91.
“AAAATAAATAAATATACACACCATATATATATTTTT [CACACA_site5573]”: the “gcPBM binding intensity (ln)” value stood at 6.88.
The value for “ATATTTATAACTTGTACACACAAATATGCATATATA [CACACA_site7583]” was 7.29.
To “TTATTATTCCCTCATTTTGTTACCATTATTTCAATT [CACACA_negctrl_site1023]” belongs 7.09; to “TTAAAATTTTTTTTTTTTTTTTTTTTTTTTTTTTTC [CACACA_negctrl_site957]”, 6.85; to “TTGTTAAAATTATTAAGTTAAATATCGATTTGTAAA [XGTACX_negctrl_site429]”, 6.69.
To “TATAAGTTTATATATACACACATATATATATATATA [CACACA_site3274]” belongs 9.66.

The values above are taken from the supplement of paper PMC11417369.
